According to the supplement of paper PMC9588766:
Structures can show the parent of a compound that is named as a salt. The full ranking holds about 1,900 compounds; the median of “cell viability of compound + 1 nM pemigatinib relative to pemigatinib-only (DMSO) wells” is about 0.95, and the lowest 2% start at about 0.22. This is one part of the list.

What follows are molecules tested on PDC-DUC18828 (assay: cell viability of compound + 1 nM pemigatinib relative to pemigatinib-only (DMSO) wells (fraction); PDC-DUC18828 is a patient-derived cholangiocarcinoma cell line; higher = less growth inhibition). Details: first compound 1 µM; pemigatinib concentration 1 nM; 72 h.
Protocol: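 Selleck Bioactive library screen in the patient-derived FGFR2 fusion-positive ICC cell line PDC-DUC18828 (500 cells/well). Each compound was tested at 1 uM with 1 nM pemigatinib, in triplicate, for 72 h. Viability was read by CellTiter-Glo and normalised to plate DMSO controls. Value is the paper's averaged normalised viability.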
`COc1cc(NS(=O)(=O)c2ccc(N)cc2)nc(OC)n1` [Sulphadimethoxine] + CCN1C(=O)N(c2c(F)c(OC)cc(OC)c2F)Cc2cnc3[nH]c(CN4CCOCC4)cc3c21 [pemigatinib] showed a cell viability of 1.01. `CC1(C)O[C@@H]2[C@@H](CO[C@@]3(COS(N)(=O)=O)OC(C)(C)O[C@@H]23)O1` [Topiramate] + CCN1C(=O)N(c2c(F)c(OC)cc(OC)c2F)Cc2cnc3[nH]c(CN4CCOCC4)cc3c21 [pemigatinib] gave a cell viability of 0.979. In the case of `O=C1N=C(O)NC1(c1ccccc1)c1ccccc1` [Phenytoin sodium] + CCN1C(=O)N(c2c(F)c(OC)cc(OC)c2F)Cc2cnc3[nH]c(CN4CCOCC4)cc3c21 [pemigatinib], the cell viability is reported as 0.969. `O=C1Nc2ccc(I)cc2/C1=C/c1cc(Br)c(O)c(Br)c1` + CCN1C(=O)N(c2c(F)c(OC)cc(OC)c2F)Cc2cnc3[nH]c(CN4CCOCC4)cc3c21 [pemigatinib] showed a cell viability of 0.92. In the case of `O=C(NCCCNc1nc(Nc2cccc(NC(=O)N3CCCC3)c2)ncc1I)c1cccs1` + CCN1C(=O)N(c2c(F)c(OC)cc(OC)c2F)Cc2cnc3[nH]c(CN4CCOCC4)cc3c21 [pemigatinib], the cell viability is reported as 0.658. `CN(Cc1ccc(C(C)(C)C)cc1)Cc1cccc2ccccc12` [Butenafine HCl] + CCN1C(=O)N(c2c(F)c(OC)cc(OC)c2F)Cc2cnc3[nH]c(CN4CCOCC4)cc3c21 [pemigatinib] gave a cell viability of 0.87. With `Cc1cccc(-c2[nH]ncc2-c2ccc3ncccc3n2)n1` + CCN1C(=O)N(c2c(F)c(OC)cc(OC)c2F)Cc2cnc3[nH]c(CN4CCOCC4)cc3c21 [pemigatinib] the cell viability was 1.02. `NS(=O)(=O)c1ccc(NC(=O)Nc2ccc(F)cc2)cc1` + CCN1C(=O)N(c2c(F)c(OC)cc(OC)c2F)Cc2cnc3[nH]c(CN4CCOCC4)cc3c21 [pemigatinib] showed a cell viability of 0.902. `S=c1[nH]cnc2nc[nH]c12` [Mercaptopurine (6-MP)] + CCN1C(=O)N(c2c(F)c(OC)cc(OC)c2F)Cc2cnc3[nH]c(CN4CCOCC4)cc3c21 [pemigatinib] was tested, and the cell viability was 0.976. `O=c1[nH]c(=O)n([C@H]2C[C@H](O)[C@@H](CO)O2)cc1C(F)(F)F` [Trifluridine] + CCN1C(=O)N(c2c(F)c(OC)cc(OC)c2F)Cc2cnc3[nH]c(CN4CCOCC4)cc3c21 [pemigatinib] was tested, and the cell viability was 0.952. With `Cn1cncc1[C@@](N)(c1ccc(Cl)cc1)c1ccc2c(c1)c(-c1cccc(Cl)c1)cc(=O)n2C` [Tipifarnib] + CCN1C(=O)N(c2c(F)c(OC)cc(OC)c2F)Cc2cnc3[nH]c(CN4CCOCC4)cc3c21 [pemigatinib] the cell viability was 0.915. With `Cc1cc(C#N)cc(C)c1Oc1nc(Nc2ccc(C#N)cc2)nc(N)c1Br` [Etravirine (TMC125)] + CCN1C(=O)N(c2c(F)c(OC)cc(OC)c2F)Cc2cnc3[nH]c(CN4CCOCC4)cc3c21 [pemigatinib] the cell viability was 0.915. In the case of `Cc1cc(F)c(Nc2ncnc3cc(OCc4ccccc4)ccc23)cc1O` + CCN1C(=O)N(c2c(F)c(OC)cc(OC)c2F)Cc2cnc3[nH]c(CN4CCOCC4)cc3c21 [pemigatinib], the cell viability is reported as 0.9. `O=C(NNc1ccccc1)c1ccncc1` + CCN1C(=O)N(c2c(F)c(OC)cc(OC)c2F)Cc2cnc3[nH]c(CN4CCOCC4)cc3c21 [pemigatinib] showed a cell viability of 0.945. Work on `Cc1nc2c(O)cccc2c(=O)[nH]1` + CCN1C(=O)N(c2c(F)c(OC)cc(OC)c2F)Cc2cnc3[nH]c(CN4CCOCC4)cc3c21 [pemigatinib] yielded a cell viability of 0.967. `CC(C)n1cnc2c(NCCc3ccc(O)cc3)nc(-c3csc4ccccc34)nc21` [StemRegenin 1 (SR1)] + CCN1C(=O)N(c2c(F)c(OC)cc(OC)c2F)Cc2cnc3[nH]c(CN4CCOCC4)cc3c21 [pemigatinib] showed a cell viability of 0.959. In the case of `CCCCOc1ccc(OCCCN2CCOCC2)cc1` [Pramoxine HCl] + CCN1C(=O)N(c2c(F)c(OC)cc(OC)c2F)Cc2cnc3[nH]c(CN4CCOCC4)cc3c21 [pemigatinib], the cell viability is reported as 0.98. `C[C@@H](O)[C@H]1C(=O)N2C(C(=O)OCOC(=O)C(C)(C)C)=C(SC3CN(C4=NCCS4)C3)[C@H](C)[C@H]12` [Tebipenem Pivoxil] + CCN1C(=O)N(c2c(F)c(OC)cc(OC)c2F)Cc2cnc3[nH]c(CN4CCOCC4)cc3c21 [pemigatinib] showed a cell viability of 0.997. For `CC1CCc2cc(F)cc3c(=O)c(C(=O)O)cn1c23` (centres undefined) [Flumequine] + CCN1C(=O)N(c2c(F)c(OC)cc(OC)c2F)Cc2cnc3[nH]c(CN4CCOCC4)cc3c21 [pemigatinib], the cell viability was 0.914. `CC(C)c1nc(CN(C)C(=O)N[C@H](C(=O)N[C@@H](Cc2ccccc2)C[C@H](O)[C@H](Cc2ccccc2)NC(=O)OCc2cncs2)C(C)C)cs1` [Ritonavir] + CCN1C(=O)N(c2c(F)c(OC)cc(OC)c2F)Cc2cnc3[nH]c(CN4CCOCC4)cc3c21 [pemigatinib] gave a cell viability of 0.994. With `COc1ccccc1OCCNCC(O)COc1cccc2[nH]c3ccccc3c12` (centres undefined) [Carvedilol] + CCN1C(=O)N(c2c(F)c(OC)cc(OC)c2F)Cc2cnc3[nH]c(CN4CCOCC4)cc3c21 [pemigatinib] the cell viability was 1. Molecule `COc1ccc(-n2nc(C(N)=O)c3c2C(=O)N(c2ccc(N4CCCCC4=O)cc2)CC3)cc1` [Apixaban] + CCN1C(=O)N(c2c(F)c(OC)cc(OC)c2F)Cc2cnc3[nH]c(CN4CCOCC4)cc3c21 [pemigatinib] has a cell viability of 1.05. `COc1ccc(C(C)=O)c(O)c1` [Paeonol] + CCN1C(=O)N(c2c(F)c(OC)cc(OC)c2F)Cc2cnc3[nH]c(CN4CCOCC4)cc3c21 [pemigatinib] showed a cell viability of 1.01. `Nc1cccc(-c2cc3c(Oc4cccc(O)c4)ncnc3[nH]2)c1` + CCN1C(=O)N(c2c(F)c(OC)cc(OC)c2F)Cc2cnc3[nH]c(CN4CCOCC4)cc3c21 [pemigatinib] gave a cell viability of 0.804. `CC(C)[C@H]1CC[C@H](C(=O)N[C@H](Cc2ccccc2)C(=O)O)CC1` [Nateglinide] + CCN1C(=O)N(c2c(F)c(OC)cc(OC)c2F)Cc2cnc3[nH]c(CN4CCOCC4)cc3c21 [pemigatinib] showed a cell viability of 0.989. `COc1c(O)cc2c(c1O)[C@@H]1O[C@H](CO)[C@@H](O)[C@H](O)[C@H]1OC2=O` [Bergenin] + CCN1C(=O)N(c2c(F)c(OC)cc(OC)c2F)Cc2cnc3[nH]c(CN4CCOCC4)cc3c21 [pemigatinib] showed a cell viability of 0.935. Molecule `CCc1c(C(=O)NCCc2ccc(N3CCCCC3)cc2)[nH]c2ccc(Cl)cc12` + CCN1C(=O)N(c2c(F)c(OC)cc(OC)c2F)Cc2cnc3[nH]c(CN4CCOCC4)cc3c21 [pemigatinib] has a cell viability of 1.01. Work on `CN1CCN(c2ccc(C(=O)Nc3n[nH]c4ccc(Cc5cc(F)cc(F)c5)cc34)c(NC3CCOCC3)c2)CC1` [Entrectinib (RXDX-101)] + CCN1C(=O)N(c2c(F)c(OC)cc(OC)c2F)Cc2cnc3[nH]c(CN4CCOCC4)cc3c21 [pemigatinib] yielded a cell viability of 0.818. `Nc1ncnc2c1c(-c1cccc(OCc3ccccc3)c1)cn2C1CC(CN2CCCC2)C1` (centres undefined) + CCN1C(=O)N(c2c(F)c(OC)cc(OC)c2F)Cc2cnc3[nH]c(CN4CCOCC4)cc3c21 [pemigatinib] gave a cell viability of 0.911. `O=C(Nc1cccc(Cl)c1)Nc1ncc(CCNc2ncnc3ccsc23)s1` [SNS-314 Mesylate] + CCN1C(=O)N(c2c(F)c(OC)cc(OC)c2F)Cc2cnc3[nH]c(CN4CCOCC4)cc3c21 [pemigatinib] gave a cell viability of 0.628. For `Nc1nc(N)nc(-c2cc(Cl)ccc2Cl)n1` [Irsogladine] + CCN1C(=O)N(c2c(F)c(OC)cc(OC)c2F)Cc2cnc3[nH]c(CN4CCOCC4)cc3c21 [pemigatinib], the cell viability was 0.986. `CCN1CCCC1CNC(=O)c1cc(S(=O)(=O)CC)c(N)cc1OC` (centres undefined) [Amisulpride] + CCN1C(=O)N(c2c(F)c(OC)cc(OC)c2F)Cc2cnc3[nH]c(CN4CCOCC4)cc3c21 [pemigatinib] showed a cell viability of 0.941. `CCCS(=O)(=O)Nc1ccc(F)c(C(=O)c2c[nH]c3ncc(Cl)cc23)c1F` + CCN1C(=O)N(c2c(F)c(OC)cc(OC)c2F)Cc2cnc3[nH]c(CN4CCOCC4)cc3c21 [pemigatinib] gave a cell viability of 0.954. With `CNC(=O)CN1CCC(Oc2cc3c(Nc4cccc(Cl)c4F)ncnc3cc2OC)CC1` [AZD8931 (Sapitinib)] + CCN1C(=O)N(c2c(F)c(OC)cc(OC)c2F)Cc2cnc3[nH]c(CN4CCOCC4)cc3c21 [pemigatinib] the cell viability was 0.809. `CCOc1cc(N2CCC(O)CC2)ccc1Nc1ncc2c(n1)N(C)c1ccccc1C(=O)N2C` + CCN1C(=O)N(c2c(F)c(OC)cc(OC)c2F)Cc2cnc3[nH]c(CN4CCOCC4)cc3c21 [pemigatinib] was tested, and the cell viability was 0.913. Molecule `CNC(=O)c1ccccc1Sc1ccc2c(/C=C/c3ccccn3)n[nH]c2c1` [Axitinib] + CCN1C(=O)N(c2c(F)c(OC)cc(OC)c2F)Cc2cnc3[nH]c(CN4CCOCC4)cc3c21 [pemigatinib] has a cell viability of 0.753. `Cc1ccc(NC(=O)Nc2cc(C(F)(F)F)ccc2F)cc1Nc1ccc2c(c1)NC(=O)/C2=C\c1ccc[nH]1` + CCN1C(=O)N(c2c(F)c(OC)cc(OC)c2F)Cc2cnc3[nH]c(CN4CCOCC4)cc3c21 [pemigatinib] showed a cell viability of 0.934. Molecule `Fc1ccc2[nH]ccc2c1-c1nc(N2CCOCC2)c2sc(CN3CCN(CC4CC4)CC3)cc2n1` + CCN1C(=O)N(c2c(F)c(OC)cc(OC)c2F)Cc2cnc3[nH]c(CN4CCOCC4)cc3c21 [pemigatinib] has a cell viability of 0.828. `CC(CN1c2ccccc2Sc2ccccc21)N(C)C` (centres undefined) [Promethazine HCl] + CCN1C(=O)N(c2c(F)c(OC)cc(OC)c2F)Cc2cnc3[nH]c(CN4CCOCC4)cc3c21 [pemigatinib] showed a cell viability of 0.972.
